Experimental data as given in the supplement of paper PMC7826260.
The other results are listed elsewhere or left out. Viral Rep nickase domains cut single-stranded DNA in vitro (3 µM enzyme, 1 h, 37 °C); shown is the middle of each 90-letter strand. The score is log2 (uncut reads / reads without enzyme); uncut sequences lie near 0, cut ones below; no hit call is given. Shares of all reads are compared; where an enzyme cuts many sequences, the uncut ones exceed 0.

How the values were obtained:
Test in all cases: uncleaved DNA left, log2 of reads against the no-enzyme library (log2 ratio); higher = less cleavage (more negative = more Rep cleavage of the k-mer); sequences stand for … in CTCGTCCG…ACCGGAGA
[1] = test system: T1, Rep nickase domain of Muscovy duck circovirus
T1 sequence (protein, residues 1-111, tag omitted): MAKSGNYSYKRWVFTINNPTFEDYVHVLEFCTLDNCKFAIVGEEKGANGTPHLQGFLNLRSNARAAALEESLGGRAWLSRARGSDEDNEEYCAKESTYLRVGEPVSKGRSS
Method: (§1)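 A pool of 90-nt single-stranded DNAs with seven random bases just before the constant AC of the nick site (name = the seven bases) was cut by 3 µM recombinant His6-SUMO-tagged Rep nickase domain (300 nM DNA, 50 mM HEPES pH 8.0, 50 mM NaCl, 1 mM MnCl2, 1 h, 37 °C, three replicates). Uncut DNA was amplified and sequenced.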

[2] = test system: T2, Rep nickase domain of banana bunchy top virus
T2 sequence (protein, residues 1-94, tag omitted): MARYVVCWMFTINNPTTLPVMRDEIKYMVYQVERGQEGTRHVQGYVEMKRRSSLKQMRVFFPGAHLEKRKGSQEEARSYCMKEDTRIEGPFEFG
Method: as §1

[3] = test system: T3, Rep nickase domain of cabbage leaf curl virus
T3 sequence (protein, residues 1-116, tag omitted): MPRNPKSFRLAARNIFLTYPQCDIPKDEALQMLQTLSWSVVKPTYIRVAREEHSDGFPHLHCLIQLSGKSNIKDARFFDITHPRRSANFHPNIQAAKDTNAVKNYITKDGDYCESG
Method: as §1

[4] = test system: T4, Rep nickase domain of chickpea chlorotic dwarf virus
T4 sequence (protein, residues 1-124, tag omitted): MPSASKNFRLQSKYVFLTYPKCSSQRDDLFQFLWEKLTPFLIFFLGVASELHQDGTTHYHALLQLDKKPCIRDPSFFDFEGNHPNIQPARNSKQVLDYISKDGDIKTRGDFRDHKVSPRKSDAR
Method: as §1

[5] = test system: T5, Rep nickase domain of faba bean necrotic yellows virus
T5 sequence (protein, residues 1-98, tag omitted): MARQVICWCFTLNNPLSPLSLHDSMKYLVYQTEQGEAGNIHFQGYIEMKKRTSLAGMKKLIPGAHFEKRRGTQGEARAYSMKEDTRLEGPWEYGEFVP
Method: as §1

[6] = test system: T6, Rep nickase domain of maize striate mosaic virus
T6 sequence (protein, residues 1-117, tag omitted): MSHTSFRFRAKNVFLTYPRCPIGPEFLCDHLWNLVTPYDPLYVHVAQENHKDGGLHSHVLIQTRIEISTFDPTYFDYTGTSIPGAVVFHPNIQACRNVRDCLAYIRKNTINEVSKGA
Method: as §1

[7] = test system: T7, Rep nickase domain of porcine circovirus 2
T7 sequence (protein, residues 2-116, tag omitted): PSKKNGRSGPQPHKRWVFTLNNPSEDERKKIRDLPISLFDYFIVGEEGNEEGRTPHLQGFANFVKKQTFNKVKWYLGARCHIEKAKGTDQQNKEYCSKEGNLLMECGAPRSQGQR
Method: as §1

[8] = test system: T8, Rep nickase domain of tomato golden mosaic virus
T8 sequence (protein, residues 1-124, tag omitted): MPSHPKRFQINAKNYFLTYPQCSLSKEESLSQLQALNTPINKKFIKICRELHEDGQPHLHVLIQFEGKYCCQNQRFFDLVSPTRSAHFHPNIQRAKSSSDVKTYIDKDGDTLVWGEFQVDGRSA
Method: as §1

[9] = test system: T9, Rep nickase domain of tomato yellow leaf curl virus
T9 sequence (protein, residues 1-136, tag omitted): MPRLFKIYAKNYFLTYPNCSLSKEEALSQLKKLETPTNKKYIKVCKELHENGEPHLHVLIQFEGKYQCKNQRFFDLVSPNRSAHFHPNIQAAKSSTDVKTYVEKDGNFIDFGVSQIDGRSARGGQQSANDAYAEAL
Method: as §1

[10] = test system: T10, Rep nickase domain of wheat dwarf virus
T10 sequence (protein, residues 1-137, tag omitted): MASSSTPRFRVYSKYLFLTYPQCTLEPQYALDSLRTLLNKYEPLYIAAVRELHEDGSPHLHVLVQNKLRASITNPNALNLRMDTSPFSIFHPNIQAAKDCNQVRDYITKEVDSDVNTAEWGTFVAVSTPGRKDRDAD
Method: as §1

Sequence | uncleaved DNA left (log2) [1] | uncleaved DNA left (log2) [2] | uncleaved DNA left (log2) [3] | uncleaved DNA left (log2) [4] | uncleaved DNA left (log2) [5] | uncleaved DNA left (log2) [6] | uncleaved DNA left (log2) [7] | uncleaved DNA left (log2) [8] | uncleaved DNA left (log2) [9] | uncleaved DNA left (log2) [10]
AACCCTA | 0.0388 | -0.0409 | 0.377 | -0.542 | 0.0563 | 0.598 | -0.259 | -0.00579 | 0.0264 | 0.0555
TTCGTGA | 0.126 | 0.0908 | 0.216 | 0.0443 | 0.0889 | -0.379 | 0.192 | 0.158 | 0.171 | 0.141
AAGGGTG | 0.157 | 0.073 | -0.178 | 0.276 | -0.0219 | -0.17 | 0.21 | 0.0898 | -0.0091 | 0.0594
CGGGGGG | 0.109 | -0.0655 | 0.178 | 0.446 | 0.0963 | 0.378 | 0.0623 | 0.16 | -0.0316 | -0.0599
CTAGTGG | 0.0125 | 0.0741 | 0.176 | 0.864 | 0.161 | 0.314 | 0.193 | 0.143 | 0.00976 | 0.077
TATATCT | -0.869 | -1.68 | -1.29 | -2.85 | -0.015 | -0.379 | -2.22 | -0.0989 | 0.239 | -0.09
TTGTAAC | 0.0428 | -0.083 | 0.0395 | -1.18 | 0.115 | -0.0712 | -0.0369 | -0.075 | 0.13 | -0.0585
TGCAAGG | 0.0366 | 0.149 | 0.42 | 1.09 | 0.165 | 1.29 | 0.156 | 0.162 | 0.00977 | 0.0383
ATTGATA | -0.0362 | -0.0584 | -0.143 | -0.234 | 0.0281 | 0.00732 | -0.0688 | 0.0344 | 0.0725 | 0.0383
TGCCAGG | 0.0108 | -0.0386 | 0.371 | 0.951 | 0.0947 | 1.04 | 0.0813 | 0.0537 | -0.0942 | -0.0268
AACTGCT | -2.28 | -0.575 | -0.653 | -1.15 | 0.0995 | -0.889 | -3.6 | -0.0547 | 0.0683 | -0.0103
GATTGCC | -0.00539 | -0.0228 | -0.558 | -0.419 | -0.0218 | -0.987 | 0.0767 | -0.0559 | 0.0118 | -0.154
GCGCGGC | 0.0553 | 0.121 | 0.0847 | 0.333 | 0.0843 | 0.105 | 0.149 | 0.169 | 0.0112 | 0.126
TATCTAT | 0.0192 | -0.0342 | -0.0304 | -1.22 | -0.129 | 0.206 | -0.564 | 0.0341 | -0.0823 | -0.0204
ACGTGGT | -0.342 | -0.214 | -0.436 | -0.696 | -0.192 | -0.584 | -2.35 | -0.152 | -0.164 | -0.261
TCCTTGT | -0.19 | -0.0759 | -0.123 | -0.638 | -0.0866 | -0.981 | -1.11 | -0.122 | -0.169 | -0.135
TTAACAG | 0.044 | 0.0456 | -0.639 | -1.78 | 0.0546 | -1.13 | 0.115 | -0.0111 | 0.0345 | -0.0392
ATCTGAA | 0.0155 | -0.132 | -0.0184 | 0.483 | 0.0732 | 0.571 | 0.114 | 0.169 | 0.000705 | 0.108
AGCCGTG | -0.0191 | -0.0316 | -0.197 | -0.0357 | -0.059 | -0.152 | 0.0946 | -0.0227 | -0.0909 | -0.147
CAAATTA | 0.0852 | -0.0871 | -0.261 | -2.64 | -0.0523 | -0.682 | -0.0341 | 0.122 | -0.0279 | -0.163
ACCGGTT | 0.0485 | -0.109 | 0.0349 | -0.198 | 0.0717 | -0.239 | 0.134 | 0.00509 | 0.000323 | -0.0648
AGAGTTT | 0.104 | 0.00315 | 0.196 | -1.2 | 0.0823 | 0.432 | -0.32 | 0.0934 | 0.125 | 0.0167
CTTGTGT | 0.23 | 0.0257 | -0.667 | -0.977 | 0.128 | -0.911 | 0.175 | 0.00273 | 0.201 | -0.0378
TGTCCCT | -0.168 | 0.00782 | 0.126 | -0.638 | -0.141 | 0.638 | -0.67 | -0.17 | 0.00203 | -0.0637
CTTGGAG | 0.0147 | -0.00572 | -0.825 | -0.438 | -0.0217 | -0.931 | 0.164 | -0.0187 | 0.122 | -0.106
GCGTACT | -0.796 | -0.22 | -0.0534 | -0.126 | -0.342 | 1.28 | -2.69 | -0.211 | -0.076 | 0.023
GCCCCTT | 0.3 | 0.15 | 0.422 | -0.264 | 0.0901 | 0.721 | -0.137 | 0.055 | 0.0975 | 0.245
TAGCGGT | 0.00858 | -0.036 | -0.116 | -0.319 | -0.206 | -0.236 | -2.03 | -0.0308 | -0.0854 | -0.0705
CATCGTA | 0.00131 | 0.0502 | -0.336 | -1.46 | -0.0373 | -1.03 | -0.0741 | -0.0327 | 0.0686 | -0.0626
CCTCACC | -0.0904 | -0.0707 | 0.0476 | -0.372 | 0.0608 | -0.367 | -0.0969 | -0.0648 | 0.0177 | 0.131
